# Results: the supplement of paper PMC11417369
# The other results are listed elsewhere or left out.
# Tested on: PfAP2-HC AP2 domain (GST-tagged)
# Assay: gcPBM binding intensity (ln(normalized median fluorescence intensity)); higher = stronger DNA binding
# How it was run: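 Each value is the highest Masliner-normalised natural-log median intensity across replicate spots of either orientation of a probe. The probes were primer-extended double-stranded 36-bp intergenic genomic sequences on an Agilent 4 × 180k array, alongside negative controls, exposed for 1 h to GST-tagged P. falciparum DNA-binding domains expressed in E. coli. Bound protein was picked up with Alexa488 anti-GST antibody and scanned at 488 nm.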
row,Sequence,gcPBM binding intensity (ln)
1,TGGAACCATAAAAAGTGTACACATATAAAAAATATG [XGTACX_site96],9.89
2,ATAATATGAGTCCCACAAAATAGACCATACGAATAT [CACACA_negctrl_site50],9.66
3,TATATTTATATAATATGTACATATTTTTTAATATTT [XGTACX_site3834],9.64
4,TATTTTATTTTCCGAAGTACAAAAGCAAAAAAAAAC [XGTACX_site103],9.38
5,AGCTAAAATATTTTTGCACACGATTTTTTTTTTTTT [CACACA_site1140],9.69
6,TATATATTTTATATATGTACATATTTATATGTTTCT [XGTACX_site1818],9.76
7,AAAAAAAAGTTATATACACACATATAAATATAAATA [CACACA_site6683],9.98
8,CGCGAACATACATACACACACATATATATATATGTA [CACACA_site205],10.2
9,TTTTTTTTTTTTTGAACACACATTATTAACTTTTAT [CACACA_site6281],9.77
10,AAAAATATTAAAAGGCGTACAATACCTGTATGCAAC [XGTACX_site6069],9.8
11,CATGTAAAATATTAAAGTACATGATTATATATATAT [XGTACX_site7486],9.77
12,ATGCACGGAAAAATATGTACTTAATTTCAATAATAT [XGTACX_site8311],9.61
13,CGGACATACTAACGGACACACGTAAGAAAAAAAAAG [CACACA_site4504],10.1
14,AGAGAGAACGGTATAACATGCGATAAATTTTAGAAG [TGCATGCA_site357],9.91
15,TATATGTCCATATTTCCACACACATATTATTTTTAT [CACACA_site9266],10.3
16,TATTAATTTTTCCTTTTTTTTTTACCCCTTTGTACA [CACACA_negctrl_site947],9.51
17,ATATATTATATTATATGTACTTAAAAAAGTGCAAAG [XGTACX_site318],9.66
18,TATATTCAATTTTTGGTGCGTAAATTAATACAAACA [GTGCAC_site9764],9.45
19,AAATAATACATTCGTACTACACATATATATTAAATA [XGTACX_site7806],9.74
20,AATATATACATATATACACACACATATATATATATA [CACACA_site8907],10.2
21,TAAAATGTTATAAGAACATGCAATTCCTTTTATTAT [TGCATGCA_site408],9.54
22,ATTTTAATTTTGTATACACACATTTGAATTATTAAT [CACACA_site3528],9.97
23,TTGTCATTATTATATTGTACAATAAGTATTAAAGAA [XGTACX_site1205],9.61
24,TATATATATTCTTTGTGTACTCATATAAGGGTAGAA [XGTACX_site8121],9.43
25,TTTTTAGAAAAGGTTATAAAAAATTAATTGAAAAAA [GTGCAC_negctrl_site289],9.31
